Experimental data: PubChem BioAssay AID493208 (National Center for Advancing Translational Sciences (NCATS), 2011)
Out of some 44,000 compounds screened, about 340 (0.77%) were called active. Another 5% or so got no clear call; they are omitted. The call rests on the fitted dose curve; in most records, active means well fitted inhibition curve with a large enough effect; inconclusive means small, poorly fitted or top-dose-only effect; inactive means flat fitted curve, though single readings scatter. This is one part of the list.

Assay: Acumen qHTS Assay for Inhibitors of the mTORC1 Signaling Pathway in MEF (Tsc2-/-, p53-/-) Cells: Sytravon;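 further: plate controls were DMSO for no effect and rapamycin for full effect; nearly all actives have a fitted effect of over 50% in size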
Settings: phospho-rpS6 immunofluorescence/PI, 24 h; series mostly up to 38.3 µM; activity change, negative = inhibition: at the top concentration
Summary of the method: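 Readout is phospho-S6 Alexa 488 signal normalized to PI per well, reported as % active cells with thresholds set from rapamycin (7.5 nM) and DMSO controls. Cells: Tsc2-/-, p53-/- MEFs, 24 hrs compound at 37 C; PI cell number serves as viability.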

Activity change, negative = inhibition, inactive:
Cc1ccc2c(c1)c(=O)c(C(=O)c1ccncc1)cn2CC(=O)Nc1ccccc1Cl 0%
CCc1ccc(NC(=O)Cn2c(=O)oc3cc(S(=O)(=O)NCc4ccccc4)ccc32)cc1 -0.186%
Cc1ccc(CNC(=O)C2CCCN(c3nnc(-n4c(C)ccc4C)s3)C2)cc1 (centres undefined) -2.84%
COc1ccc(NC(=O)CSc2nc(O)c(C/C=C/c3ccccc3)c(=O)[nH]2)cc1 -0.834%
CCSc1nc(-c2ccc(Cl)cc2)nc2c1Cc1c(CO)cnc(C)c1O2 3.53%
COc1ccccc1CNC(=O)CCC1N=C2c3ccccc3N=C(SCc3ccccc3Cl)N2C1=O (centres undefined) -0.699%
COc1ccc(-c2cc(C(F)(F)F)n3nc(C(=O)Nc4cccc(C(F)(F)F)c4)c(Br)c3n2)cc1 -11.7%
CCOC(=O)c1sc2ccccc2c1S(=O)(=O)NCc1ccc(F)cc1 -22.6%
CCOC(=O)c1ccc(NC(=O)CCn2cnnn2)cc1 -21.8%
CC1=C(c2ccc(Cl)cc2)S(=O)(=O)N=C1N1CCN(c2cccc(C(F)(F)F)c2)CC1 0.797%
O=C(NCc1ccccc1Cl)c1ccc(CSCc2cccc(F)c2)o1 -2.73%
Cc1ccc(NC(c2nnc(-c3ccccc3)o2)c2ccccc2F)c([N+](=O)[O-])c1 (centres undefined) 0.753%
Cc1ccc(-n2nnnc2CNC(=O)c2ccccc2F)cc1C -0.904%
Cc1cccn2c(=O)cc(COc3ccc(NC(=O)c4cccc(F)c4)cc3)nc12 -0.624%
CCC1CCCCN1C(=O)Cn1c(=O)n(CCCCCC(=O)NCc2ccc(F)cc2)c(=O)c2sccc21 (centres undefined) 7.44%
O=C(O)CCn1cnc2onc(-c3ccccc3Cl)c2c1=O -0.282%
O=C(NCc1ccc(Cl)cc1)c1ccc2c(c1)NC(=O)C(CS(=O)(=O)Cc1ccccc1Cl)N2 (centres undefined) 0%
CCc1cccc(NC(=O)Cn2cc(C(=O)c3ccncc3)c(=O)c3cc(C)c(C)cc32)c1 -1.29%
COc1cccc(N2C(=O)CSC23C(=O)N(CC(=O)Nc2cccc(Cl)c2)c2ccccc23)c1 (centres undefined) -6.14%
COc1cc(CN(C(=O)COc2ccccc2Cl)c2ccccn2)cc(OC)c1OC -0.28%
CCn1c(C)c(C)c2cc(C(=O)N3CCN(c4cccc(C)c4C)CC3)ccc21 -12.5%
COc1cccc(-n2c(-c3ccco3)nc3c(cnn3-c3ccc(Cl)cc3)c2=O)c1 -1.78%
COc1ccc(CC(=O)Nc2cc(-c3nc4cccnc4s3)ccc2C)cc1 2.99%
CN(C)S(=O)(=O)N(CC(=O)NCCSCc1cccc(Cl)c1)c1ccccc1 -7.09%
CCOC(=O)c1ccc(N2C(=O)c3n[nH]c(-c4cccs4)c3C2c2cccc(OC)c2)cc1 (centres undefined) -7.46%
CCOc1ccc(-n2c(=O)c3c4c(sc3n(CC(=O)NC(C)CC)c2=O)CCC4)cc1 (centres undefined) -0.218%
O=S(=O)(c1ccc(Cl)cc1)c1nnn2c1nc(NCc1cccs1)c1sccc12 -19.8%
CCC(=O)Nc1ccc2nc(SCc3ccccc3)sc2c1 -1.89%
COc1ccc(C)cc1NC(=O)CSc1nc(=O)[nH]c2c1CCCC2 -6.02%
CCC(CC)C(=O)N1CCc2cc(OC)c(OC)cc2C1COc1ccc(C(=O)OC)cc1 (centres undefined) 0.0905%
COc1ccc(-c2nnc(Nc3ccc(OC)c(C(N)=O)c3)c3ccccc23)cc1 11.4%
CCS(=O)(=O)c1nc(S(=O)(=O)c2ccc(C)cc2)c(NC(C)c2ccccc2)s1 (centres undefined) -20.1%
CCOc1ccc(-n2cc(-c3ccccc3)c3c(N4CCC(C)CC4)ncnc32)cc1 9.33%
CCOc1ccccc1NC(=O)C(=O)c1cc(C)n(-c2ccc(F)cc2)c1C -1.92%
Cc1ccc(S(=O)(=O)c2nc(-c3ccc(F)cc3)oc2SCC(=O)c2ccccc2)cc1 0.474%
CCc1ccc2oc(-c3cccc(NC(=O)C(C)(C)Oc4ccc(Br)cc4)c3)nc2c1 -5.22%
Cc1ccc(Nc2c(-c3ccc(C)cc3)nc3ccc(C)cn23)cc1 4.34%
Cc1cc(C)cc(Nc2ncnc3onc(-c4ccc(F)cc4)c23)c1 -4.79%
CCOc1ccc(CNC(=O)c2cc3c(s2)-c2ccccc2OC3)cc1 -2.03%
O=C(c1ccc2c(c1)CCCC2)N1CCN(c2nc3ccc(F)cc3s2)CC1 -0.43%
CCc1ccc(S(=O)(=O)NCc2nc3cccnc3n2Cc2ccccc2Cl)cc1 -10.5%
CCCOc1ccc(CNC(=O)Cn2cc3c(n2)-c2c(oc(C(=O)N4CCOCC4)c2C)CC3)cc1 -19.9%
COc1cc(NC(=O)NC(C)c2c(-n3cccc3)sc3c2CCN(C)C3)cc(OC)c1 (centres undefined) -1.23%
COc1cccc(-n2c(SCC(=O)N3CCCc4ccccc43)nc3c([nH]c4ccccc43)c2=O)c1 -0.135%
O=C(CCSCc1cccc(F)c1)NCc1ccccc1 5.3%
COc1ccc(Cl)cc1NC(=O)Cn1c(=O)n(CCCC(=O)NCCc2ccc(OC)c(OC)c2)c(=O)c2ccccc21 -15.6%
CCN1CCN(c2c(S(=O)(=O)c3ccc(Cl)cc3)cnc3ccccc23)CC1 -1.06%
Cc1ccc(NC(=O)Cn2c(=O)n(CCCS(=O)(=O)C3CCCCC3)c(=O)c3ccccc32)cc1F -0.266%
CC(NC(=O)c1ccc(Cn2c(=O)c3cccn3c3cccnc32)cc1)c1ccccc1 (centres undefined) 6.35%
COc1ccc(C(=O)c2oc3ccccc3c2NC(=O)COc2ccc(C)cc2)cc1 -0.352%
COc1ccc(S(=O)(=O)c2cc3cc(OC)ccc3oc2=O)cc1 6.27%
CCc1ccccc1NC(=O)N1CCc2cc(OC)c(OC)cc2C1CC(=O)OC (centres undefined) 0%
Cc1ccc(C)c(Nc2nc3c(S(=O)(=O)c4ccc(Br)cc4)nnn3c3ccsc23)c1 -8.01%
CCC1CN(S(=O)(=O)c2ccc3c(c2)NC(=O)CC(=O)N3)c2cc(Cl)ccc2O1 (centres undefined) -1.41%
Cn1c(=O)c2c(-c3ccccc3Cl)n(Cc3ccc(Cl)cc3)cc2n(C)c1=O -17%
Cc1cccc(N2CCN(C(=O)CCC(=O)NNc3nc4ccccc4c4nc(C)nn34)CC2C)c1 (centres undefined) -1.01%
COc1cc(C2c3c(-c4c(C)cc(C)cc4O)n[nH]c3C(=O)N2CCCOC(C)C)cc(OC)c1OC (centres undefined) 2.42%
CCc1ccccc1NC(=O)CN1C(=O)COc2ccc(S(=O)(=O)Nc3ccccc3)cc21 -8.09%
Cc1ccc(N2CC(c3nnc(Cc4ccccc4Cl)o3)CC2=O)cc1 (centres undefined) 6.32%
COc1ccccc1Cc1nc2ccccc2nc1SCC(=O)Nc1ccccc1C(F)(F)F 1.53%
COc1ccc(S(=O)(=O)n2nc(-c3ccco3)nc2NCc2ccc(OC)c(OC)c2)cc1 1.49%
COc1ccc(N(C(=O)c2ccc(Cl)cc2)S(=O)(=O)c2ccc(C)cc2)cc1 7.25%
COc1ccccc1N1CCN(c2cc(C)nc3c(-c4ccc(Cl)cc4)c(C)nn23)CC1 -5.28%
COCCCNc1nc2c(c(=O)n(C)c(=O)n2C)n1Cc1ccccc1 -1.98%
COCCOC(=O)C1=C(C)N=C2SCCC(=O)N2C1c1ccc(OCc2ccccc2)c(OC)c1 (centres undefined) 0.186%
CN(C)c1ccc(CNC(=O)CCn2c(=O)c3cccn3c3ccc(F)cc32)cc1 5.13%
COc1cccc(-c2[nH]c3c(c2-c2c(-n4cccc4)n(C)c(=O)[nH]c2=O)c(=O)[nH]c(=O)n3C)c1 -2.19%
COCCNC(=O)CCSc1nc(-c2ccc3c(c2)OCO3)cc(C(F)(F)F)n1 0.491%
CCc1nnc2c(NCc3cccc(OC)c3)nc3ccccc3n12 -0.423%
CCOc1ccccc1C(=O)Nc1nnc(COC)s1 -2.54%
Cc1ccc(C(=O)N2CCc3cc(CNC(=O)c4ccnn4C)ccc32)cc1 -13.5%
CCN(CC)S(=O)(=O)c1ccc2c(c1)c(=O)c(C(=O)NCc1ccccc1OC)cn2C -1.85%
Cc1ccc(NS(=O)(=O)c2ccc3c(c2)NC(=O)CCS3)cc1F -4.91%
Cc1cn(C)c(CC(=O)N2CCN(c3ccc(F)cc3)CC2)c1C(=O)O -3.24%
O=C(NCc1ccc2c(c1)CCN2C(=O)c1ccccc1)c1ccc(Br)o1 -0.155%
CCN(C(=O)Cn1cc(C(=O)c2ccc(F)cc2)c(=O)c2ccc(C)nc21)c1cccc(C)c1 -4.83%
CC1CCCCN1c1nc(-c2ccc(C(C)(C)C)cc2)nc2ccccc12 (centres undefined) -11.1%
COc1cc(NC(=O)Cn2c(=O)nc(-c3ccccc3F)c3cc(Cl)ccc32)cc(OC)c1 0%
CCOC(=O)c1cc(OC(=O)c2cccc(Cl)c2)n(-c2ccccc2)n1 -0.983%
Cc1ccc(C)c(N2CCN(C(=O)Cn3c(C)c4cnn(-c5ccccc5)c(=O)c4c3C)CC2)c1 -5.26%
COC(=O)c1ccccc1NC(=O)Cn1nc(C(F)(F)F)c2c1CCCC2 -3.1%
CCOc1ccc(C(=O)N2CCC(c3ccncc3)CC2)cc1 -11.4%
CC(C)c1nc2ccc(C(=O)NCCCN3CCN(c4ccc(F)cc4)CC3)cc2o1 0.599%
CCC1CN(C(=O)N2CCC(C(=O)NCc3ccco3)CC2)c2cc(C)ccc2O1 (centres undefined) 10.6%
COc1cccc(-n2c(-c3ccc(C)cc3)cc3c2CC(C)(C)CC3=O)c1 -14.9%
CCCCOc1ccc(CNC(=O)c2cnc3sc(N4CCC(C)CC4)nn3c2=O)cc1 -5.23%
Cc1ccc2c(c1)CC(C)N2S(=O)(=O)c1nnc(NC(=O)CC(C)C)s1 (centres undefined) -2.65%
Cc1cc(C)c2c(CC(=O)Nc3c(C(=O)c4ccc(F)cc4)oc4ccccc34)coc2c1 -3.91%
COc1ccc(OC)c(NC(=O)CCc2c(C)nc3c(c(C)nn3C(C)(C)C)c2C)c1 -11.2%
Cc1c(NC(=O)c2ccc(Cl)cc2)cc(C(C)C)c(O)c1S(=O)(=O)c1ccccc1 6.81%
COc1ccccc1C(=O)Nc1ccc(OCc2cc(=O)n3cccc(C)c3n2)cc1 -24.4%
Cc1cc(=O)n(Cc2ccccc2Cl)c2c1c(C)nn2-c1ccccc1 -8.57%
Cc1cc(NC(=O)CSc2nc3c([nH]c4ccccc43)c(=O)n2-c2ccc(Cl)cc2)no1 -0.122%
COc1ccccc1CNC(=O)CCS(=O)(=O)c1ccc2c(c1)CC(C)N2C(=O)C1CC1 (centres undefined) 1.31%
